Laboratory results from the supplement of paper PMC10126150.
Sequences with one replicate were seen in a single cluster, so their values are uncertain.

Tested on: ATP
Experiment: switch fluorescence ratio, 500 uM ATP over buffer (Cy3 cluster intensity, sum of 5 cycles each) (fold (ratio)); higher = stronger signal-on switching upon ATP binding; sequences stand for … in TCGTCGGCAGCGTCAGATGTGTATAAGAGACAGTTTTTTTTTTTTTTTTTTTTTTTTT…TC
Details: aptamer strand: ATP DNA aptamer (quencher-CACCTGGGGGAGTATTGCGGAGGAAGG + anchor), 100 nM annealed; ATP concentration: 500 uM; one replicate
Method in brief: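 After annealing to 100 nM quencher-labelled ATP aptamer, Cy3-labelled switching-strand clusters on a modified Illumina MiSeq flow-cell were imaged in selection buffer. A second image followed after 15 min with 500 uM ATP at 22 °C, and five such buffer/ATP cycles were done, each separated by NaOH stripping and re-annealing. The fluorescence ratio, averaged per switch-domain sequence, is summed target-cycle over summed buffer-cycle Cy3 intensity per cluster, with clusters outside 100-1000 RFU excluded.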
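Also: ATP exposure 15 min at 22 °C before imaging.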

Sequence	switch fluorescence ratio
AAGGCTGAAA	1.02
GTGTCATATA	0.991
AGATTCTTCA	1.01
TGAAAATTGT	0.944
CACTAAGGG	1.01
AGTAGTTGTG	0.995
TCGGGTTCTA	1.03
GAGAAAACGC	0.995
GGTGGCGTTC	0.984
TCACAATCGA	1.03
GGGCAAGCAA	1.29
GAACTCCTTG	1.01
AAATTTA	0.971
AAGTCGCTCT	1.03
AGTTTGGGCT	0.99
GGCTTCTGTG	0.99
ATTCCGGAGT	2.22
CAGTGATGGC	0.969
GTGTATCATA	0.998
TCCTGATTAC	1.26
GGTGAAGAGA	0.973
GAGGAAAAT	0.982
CGGGCTACGT	0.97

Sequence	switch fluorescence ratio
GCGTTCGAGC	1.03
CATGCGCCTG	1.04
AAAGCGATTA	1.04
ACCTAGGTG	3.14
TGGTCTGTA	1.02
CGCATGGCAA	1.23
CCATGCGAAG	1.01
CATGGATAGA	1.02
AGCGGAGGGT	1.09
TTAATTGGA	1.03
GGTGACCGCA	1.07
TCATCACGTT	1.01
GCATGAGCCT	0.988
ATGAGTACG	1
GATTGCCGCT	0.96
CCATTCATTC	1.03
ATCCACACCT	1.34
TCGTAACGTA	1.04
CCTGACAGAC	1.73
AATCAGTACG	1.02
CATACTGGGA	1.07
TCAGGGATTT	0.955
TATTGTGATC	1.02

Sequence	switch fluorescence ratio
ATCTAAGTGC	1.12
CGAAGATTCA	0.989
ATTGACAACG	0.904
ATTAAAATTA	0.993
TAAGTTGC	0.992
GTTCAATATC	1.14
CCCCCGTATT	2.44
AGATTCAGCG	1.03
AGACACAGG	1.13
CAAATGCTGA	0.991
CTACTTAAGC	1.04
GATCCTATTT	0.963
GCTAGGCCGT	1
TGGCCTTGAC	1.03
GTGTTTTTCT	1.01
GCTATATCGT	0.987
ACGCCGGGCC	1.03
GTGAATGCTA	0.982
GGACTTGGGG	1.01
CCAAAATGAA	0.992
ACACGATGTC	1.11
GTCCATATTA	0.999
TGGTAATCTT	0.989

Sequence	switch fluorescence ratio
CGCTGCGCTA	1.46
CCTTTTGTCG	0.974
CCCAGATTGC	1.02
CCAACACCAC	1.13
CCATATCTT	0.986
GAAACGTAAA	1.08
CATAACAAGA	1.01
TAGTATACTT	0.982
TCCGTCATCT	1.07
TTCTTATTTG	1.04
AGATACTAGA	1.01
TTTTCTGCGA	1.4
CAATGAATTT	0.95
CATCCCGCGG	1.31
AGCCTGTCTC	1.01
TATTCGGCTT	0.976
GTGATTCCGG	1
CGAATTAGGA	0.949
GGAAGGAAGT	0.937
ATATTATACA	1.02
GCGCATCGGG	1.04
TATGCCCGCG	1.03
TTTAAGCACT	1.22

Sequence	switch fluorescence ratio
ACTACCTAGG	1.18
TGCATTTGTG	0.971
TCTAGGGAAA	0.984
TCTAACAAGT	0.946
TAGGCCATGC	1.02
GCTTGACCG	1.03
GATGTGGGGA	0.997
GTCGATCTCT	1
CTCGGGAAGA	1.04
AATCAGCACG	1.07
GTGATCCTGG	1.04
CCGTTGGTCC	1.09
AAGGAACTT	0.997
GTCCGTGGGA	0.988
TCATTAATGA	1.01
GCGCTTACAT	1.06
ATTTTTAGG	1.01
TTTCGGACTT	1.11
TCGGGCTCAT	0.965
AAGAAAAAGA	0.977
TCCGGGAAGT	1.06
GCACGCAACG	1.28
ACATCCTCCT	1.23

Sequence	switch fluorescence ratio
GACCGAGATT	1.03
TAGAAACCT	2.66
GGTTCATACT	1.03
ATCATCGGTC	1.03
CATTATGTGG	0.981
AAGTAGAGGT	1.04
ACCGAGCTAG	1.13
ATGCACCGGT	0.981
GTGTTATGGA	1.03
TGTCAACAGG	1.08
TGAGCTCAGG	1.02
CCTTTATGTG	1.01
AACCGGTGTT	1.03
GGTTTCACCT	1.04
GCGATTCGG	1.04
GGAGTGCAGT	0.994
CTTGGTCTCT	1
TAGAGCTGCG	0.981
GGATAGCAGG	0.994
GGCGCGAGTA	1.04
ATGTCAACTC	1
ACGGAATGGA	1.13
TAATCCCGA	0.994

Sequence	switch fluorescence ratio
TTACTGGTTT	0.998
TATTCGTGTT	2.42
GAAGGG	0.942
TAAAGGTGGA	0.986
AGCGGATGGC	0.995
CCGATACGA	1.81
TAACAGACGT	1.08
TAACCGTTGG	1.08
ACGGCACTTT	1.44
CAGCTTTCCG	1.06
AAGGGACTCC	0.984
TAGAGGTATA	0.976
TCTGGACAGC	0.979
CCGTGTCCGC	2.71
GCACCTTTTT	1.2
GAAAGTGATC	0.982
GGCTTGATTG	0.98
ACATTGCAGG	0.989
CCATATATGC	1.08
TAACACTA	1.06
